Results: PubChem BioAssay (NCI)
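How tested: cells in 96-well plates exposed to compound for 48 hours at five concentrations. At the GI50, growth is halved.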 Not every entry of the source has a single result; some have several. The list is limited to them. There may be further records. Values that stand side by side are repeated measurements in other runs, samples, wells, individuals or studies. Records carry a tag for their origin. Letters hold for one entry only.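 TGI: concentration producing complete growth inhibition.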

Columns and labels:
Experiment in all cases: growth of human tumour cells (NCI), 48 h
A549 NSCLC = tested on: A549 NSCLC
TK-10 renal = tested on: TK-10 renal
K-562 leukemia = tested on: K-562 leukemia
MOLT-4 leukemia = tested on: MOLT-4 leukemia

SMILES	TGI (A549 NSCLC)	GI50 (TK-10 renal)	TGI (K-562 leukemia)	TGI (MOLT-4 leukemia)
CC(C)N=c1cc2n(-c3ccc(Cl)cc3)c3ccccc3nc-2cc1Nc1ccc(Cl)cc1	3.71 µM [sample A, 1 test] and > 50 µM [sample B, 1 test]	2.88 µM [sample A, 1 test] and > 50 µM [sample B, 1 test]		
COc1cc2c(c(OC)n1)[C@]1(O)[C@H](O)[C@H](CN(C)C)[C@@H](c3ccccc3)[C@]1(c1ccc(C#N)cc1)O2			> 41 µM [sample A, mean of 2 tests] and 2.43 µM [sample B, mean of 2 tests]	> 43.5 µM [sample A, mean of 2 tests] and 2.09 µM [sample B, mean of 2 tests]
